Read counts are not given, so values of variants with three or more changes are uncertain.
B1: CPEB3 Ribozyme (parent)
chain: UAACAGGGGGCCACAGCAGAAGCGUUCACGUCGCAGCCCCUGUCAGAUUCUGGUGAAUCUGCGAAUUCUGCUGUAUAUCUC

Variants of: B1
Experiment: self-cleavage, relative activity (ratio to wild type); higher = more cleavage; in vitro, sequencing
Procedure, shortened: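 For each CPEB3 ribozyme variant, relative activity is its cleaved/total read fraction divided by the unmutated ribozyme's. Barcoded error-prone PCR libraries were transcribed by T7 RNA polymerase (5 hours, 37°C) and held in DNase I for 15 min before an EDTA stop, with cleavage occurring throughout. Template-switching reverse transcription and Illumina sequencing were used to read the RNAs. A 5-read minimum applied, and results are the mean of three batches.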

Variant | self-cleavage
A15G U54C U76A | 0.36
A15G U31C A45G U48C A77U | 0.16
A15G U26A U54C A57G G63A A75G | 0.43
A15G U43C U66C U78C | 0.14
A15G U48A U60A U80G | 0.12
A15G U31C U49C A56G | 0.3
A15G U54A U66A | 0.43
A15G U31A U67A | 0.3
A15G G22U U26C A45G A64U U80C | 0.08
A15U A18G U43C A64G | 0.18
A15U A18G U41C A47G A57G U66A | 0
A15U A18G C50G U72C | 0.15
A15G U43A A65G U72A U80A | 0.36
A15G U43A C62U U66C A75G U80C | 0.22
A15G U25C U54A A56G U60A | 0.21
A15G U25A U31G A35U A47G A57G U58C | 0
A15G U43A U60C U72C U78C | 0.75
A15G U41C U51C U72C | 1.16
A15G U25C U54C G55U U72A | 0.07
A15U A18G U43C | 0.41
A15G U54C U72A | 0.44
A15G U54C U72C | 1.29
A15G G63U U72C | 1.25
A15G U25C A28G A47G A57G U58C | 0.23

Variant | self-cleavage
A15U A18G A28U U60C U66C | 0.09
A15G U54A A64U | 0.32
A15G U49A U67A | 0.3
A15G G22A U80C | 0.1
A15G G19A U41C U48C U54A C59A U60C | 0.19
A15G U25C A45G U49A | 0.47
A15G U41G U48C U78C | 0.14
A15U A18U U31A A56G A64G | 0.12
A15G U43A A65G | 0.36
A15G U26A C34U C37U C38U U69C | 0.05
A15G U51C C62U U66C | 0.34
A15G U26A A56U G61C | 0.16
A15G U25C A64G | 0.11
A15G C38U U51C | 0.68
A15G U26G C40A U41C | 0.06
A15G U54A A56C U80C | 0.53
A15G U26A U51A | 0.24
A15G U51C U54A A64G | 0.28
A15G U25C U43C | 0.26
A15G U41C A64G U78C | 0.46
A15G U69A U72A | 0.19
A15G U31C U72C | 0.23
A15G U26C U54C U78C | 0.25
A15G U54C U66G | 0.77

Variant | self-cleavage
A15U A18G G19C G52U U69C U72C | 0.13
A15G U41C A47G U58A U72C | 0.65
A15G U69C U78C | 0.2
A15G C40U A56U U60C U69C A75G U76C | 0.1
A15G U25C C39U | 0.1
A15G U25C C68G U72C U80C | 0.21
A15G U26C A35U U60A U66C U80C | 0.08
A15G U41C G55A U66A | 0.2
A15G U31C U41C U78C | 0.29
A15G U41C A45C U54A U80C | 0.51
A15G C39U A47U | 0.39
A15G U41C U58C U60A | 0.23
A15G G16U A21G U25C U41A U43A A57G | 0.16
A15G U51C U67A U69C | 0.16
A15G U31A A45G | 0.28
A15G U41A U43C | 0.34
A15G U31C A64U | 0.19
A15G U25A U58C | 0.21
A15G U26A U41C U51C U76G | 0.62
A15G U41A U74A | 0.45
A15G U41A U74C | 0.15
A15G U26C A28G G52C U67C | 0.07
A15G U25C A57G | 0.26
A15G U25G A56C A57G U67A | 0.06

Variant | self-cleavage
A15G U41C U43A A64G U69C | 0.1
A15G G30A A75G | 0.07
A15G U48C U54A A64G A75U | 0.18
A15G U41C U49C U69A | 0.14
A15G U26C U48C U54C U76A | 0.28
A15U A18G U58A U72C | 0.19
A15G G19A A45U U74A | 0.3
A15U A18G U26C A28C U31C | 0.37
A15G U43C U66A U67C | 0.16
A15G U25C U76A | 0.41
A15G U26A U49A A56U A57G A64G | 0.19
A15G U54G A56G C68A A75G | 0.1
A15G U26C A45U A56G | 0.12
A15G G24U U41C A45U U58C | 0.07
A15G U49C A57U G61A | 0.08
A15G U31A A57G U78A | 0.74
A15G G36A A56U A57G U58C | 0.11
A15U A18G A21G U31A U41C | 0.24
A15G U60A A64G | 0.64
A15U A18U U26C A65G U67C | 0.08
A15G G24C U58C U74A | 0.07
A15G G36A U49C U58C A77G | 0.06
A15G U41A C68A | 0.15
A15G U58A U67C | 0.16

Variant | self-cleavage
A15G U43G U69C G70A | 0.09
A15G U60G C68A A77U U80C | 0.23
A15G U26A A28U A45U U51A | 0.16
A15G G30A U31A C40A U69A | 0.09
A15G U31C U48C | 0.28
A15G U67C U72A | 0.3
A15G U74C A75G | 1.05
A15G G52U U67C U72A | 0.18
A15G G52U U69C | 0.14
A15G U54A C68A | 0.16
A15G U25C A45G U60C | 0.1
A15G U31C U60A A64G | 0.35
A15G U31A U41A U43A U54C U76C U78A | 0.07
A15G U41C A77U U78C | 0.93
A15G U25C U26C A28U U78A | 0.19
A15G U31G U58C U74A | 0.79
A15G U26A U66G | 0.19
A15G U26A A28C A56G | 0.21
A15G G24A A57U A65G A77G | 0.08
A15G U48C G61U | 0.16
A15G U26C A64C A65C | 0.17
A15G U51C U72A | 0.29
A15G U41A U72C | 0.55
A15G G73A U74A | 1.17

Variant | self-cleavage
A15G U41C A57G U74C | 0.76
A15G U25A C29U | 0.25
A15G G42A U51C G63A C79A | 0.45
A15G U41C U49C | 0.24
A15G G22C U51A U80A | 0.35
A15G U49G A56U U80A | 0.94
A15G U26A A45C G63A U67C A75G | 0.04
A15G U41C G52C | 0.85
A15G U26C U43A A47G U69C | 0.2
A15G U26C C34A U49A A77G U80C | 0.06
A15G U25A U67A | 0.2
A15G C39A A47C U49C | 0.19
A15G G33A C62U | 0.31
A15G U51A U60C | 0.42
A15G G30U U67A | 0.17
A15G U26C G30A A65G U69A | 0.14
A15G U26C U80C | 0.57
A15G U26C G30U G33C A47G U69A U80C | 0.08
A15G C40G U43C U48C U80C | 0.32
A15G U41C U58C C62U A64U A75G | 0.14
A15G U31A A47U U66C | 0.04
A15G C62U U80C | 0.26
A15G U31A A56U A64G | 0.25
A15G G70A U80C | 0.32

Variant | self-cleavage
A15G C40A U41C U60G U67A U74A U80A | 0.03
A15G U41G A57G U80C | 0.39
A15G U26A U51C A57U | 0.24
A15G U31A U51A | 0.69
A15G G46A U54C A75G | 0.04
A15G U26C G55A | 0.29
A15G U31A C39U U49G G53C | 0.07
A15G G33C C44A A56G C62G U69A | 0.1
A15G U66C U67C | 0.33
A15G U41C A45U A47G U80C | 0.45
A15G G30A U43G A64U | 0.25
A15G U41C A64G | 0.61
A15G U41C C50G A64G | 0.06
A15G U26A U49C U80A | 0.3
A15G U69A A75G | 0.15
A15U A18G A20G A28U A45G U60C U78A | 0.08
A15G U26A C34A U78C | 0.07
A15G U41G U43A | 0.49
A15G G24A C38U U43C U51A A56G A65G | 0.03
A15G G19U U41C U60C A64G G73A U74C | 0.07
A15G U25C U67C A75G | 0.11
A15G U31C C32U A64C U67C | 0.06
A15U A18G A20G U41A A56G U60A | 0.03
